Test results from PubChem BioAssay AID686979 (National Center for Advancing Translational Sciences (NCATS), 2013).
Values joined by “and” are separate entries in the source; they are usually repeats but may differ in a detail not shown here. Identical values can stand only once. The whole screen tested about 420,000 compounds, of which about 50,000 (12%) were called active. The shares of active, inactive and inconclusive entries below differ from those in the screen. Calls come from the whole dose curve; as a rule, active = well fitted inhibition curve with a large enough effect; inconclusive = small, poorly fitted or top-dose-only effect; inactive = flat fitted curve, though single readings scatter. Where the call is inconclusive, the potency comes from a doubtful curve fit.

assay: qHTS for Inhibitors of human tyrosyl-DNA phosphodiesterase 1 (TDP1): qHTS in cells in presence of CPT; details: chicken DT40 Tdp1-/-;hTDP1 cells + 20 nM CPT, ATP luminescence, 48 h; activity change, negative = growth inhibition: at 46.2 µM (top of the series) unless noted; note: nearly all actives have a fitted effect of over 55% in size
How it was run: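 Chicken DT40 Tdp1-/- cells complemented with human TDP1, 400 cells/well, exposed to compounds plus 20 nM camptothecin for at least 48 h at 37 C; viability read as ATP content by CellTiter-Glo luminescence.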
% is set by controls: 0 for no effect and ±100 for the full control effect; potency is the fitted concentration of half-maximal effect; tags give direction and shape of the fitted curve.

| Structure (SMILES) | activity change, negative = growth inhibition | Potency |
| --- | --- | --- |
| NNc1cc2c(nn1)CCN(C(=O)c1ccccc1)C2 | inactive: -5.3% |  |
| CC1CCCN(C(=O)c2cc(-c3ccco3)nc3ccccc23)C1 (centres undefined) |  | inconclusive: 0.164 µM [inhibitor, full curve, poor fit] |
| O=C(O)C1CCCC1 | inactive: 0.0946% |  |
| COc1ccc(CNC(=O)c2ccc3[nH]c(C)c(C)c3c2)c(OC)c1 | inactive: -9.22% |  |
| CN1CCN(c2ccc([N+](=O)[O-])cc2/C=N/NC(=O)c2ccc(F)cc2)CC1 |  | inconclusive: 29.1 µM [inhibitor, single point] |
| CCOc1cccc(CNc2ccc(O)cc2)c1OCc1ccccc1Cl |  | active: 23.1 µM and active: 13 µM |
| O=C(CSc1nnc(-c2ccco2)o1)Nc1c(F)cccc1F | inactive: -13.6% |  |
| N#C/C(=C\c1ccc(-c2ccc(F)cc2F)o1)c1nc2ccccc2[nH]1 |  | active: 23.1 µM |
| Cc1ccc(C)c(S(=O)(=O)N2CCN(C(=O)CNC(=O)c3ccc4ccccc4c3)CC2)c1 |  | inconclusive: 20.6 µM [inhibitor, single point] |
| COc1cc(/C=C(/C#N)c2ccc(C)cc2)ccc1Oc1ccc([N+](=O)[O-])cn1 |  | inconclusive: 13 µM [inhibitor, single point] |
| COc1ccc(NS(=O)(=O)c2cc(NC(=O)c3ccco3)ccc2N2CCCC2)cc1 | inactive: 7.46% |  |
| COc1ccccc1-c1ccnc(-n2ncc(C(=O)NCc3cccnc3)c2C)n1 | inactive: 26.5% [at 9.04 µM] |  |
| COc1ccc2cc(CN(CC3CCCO3)C(=S)NCc3ccco3)c(=O)[nH]c2c1 (centres undefined) | inactive: -16.7% |  |
| C#Cc1ccc([C@H]2C=C(C(=O)N3CCN(Cc4ccccc4)CC3)O[C@@H](OCC)[C@@H]2CCCO)cc1 |  | inconclusive: 18.4 µM [inhibitor, single point] |
| CC(=O)Nc1cccc(C(=O)Nc2cccc(S(=O)(=O)NCc3ccco3)c2)c1 |  | inconclusive: 29.1 µM [inhibitor, single point] |
| COc1ccccc1C(=O)Nc1ccc(S(=O)(=O)N2CCc3ccccc32)cc1 |  | inconclusive: 29.1 µM [inhibitor, single point] |
| O=C(Cn1cnc2c(nnn2Cc2ccccc2F)c1=O)N1CCN(c2ccccc2)CC1 |  | inconclusive: 14.6 µM [inhibitor, partial curve] |
| COc1ccc2nc3ccccc3nc2c1NC(=O)c1ccc(Cl)cc1 | inactive: 2.9% |  |
| CCc1nnc2c(NCCc3ccc(OC)c(OC)c3)nc3ccccc3n12 |  | inconclusive: 25.9 µM [inhibitor, single point] and inconclusive: 29.1 µM [inhibitor, single point] |
